Results on ten substances are retold here after PMC7522254.

Chains of the proteins cited; added tags and fusions are not shown. Lines headed by an entry give the natural chain unless they say otherwise; changes in a name come on top. Residues count along the entry.
UniProt Q00987: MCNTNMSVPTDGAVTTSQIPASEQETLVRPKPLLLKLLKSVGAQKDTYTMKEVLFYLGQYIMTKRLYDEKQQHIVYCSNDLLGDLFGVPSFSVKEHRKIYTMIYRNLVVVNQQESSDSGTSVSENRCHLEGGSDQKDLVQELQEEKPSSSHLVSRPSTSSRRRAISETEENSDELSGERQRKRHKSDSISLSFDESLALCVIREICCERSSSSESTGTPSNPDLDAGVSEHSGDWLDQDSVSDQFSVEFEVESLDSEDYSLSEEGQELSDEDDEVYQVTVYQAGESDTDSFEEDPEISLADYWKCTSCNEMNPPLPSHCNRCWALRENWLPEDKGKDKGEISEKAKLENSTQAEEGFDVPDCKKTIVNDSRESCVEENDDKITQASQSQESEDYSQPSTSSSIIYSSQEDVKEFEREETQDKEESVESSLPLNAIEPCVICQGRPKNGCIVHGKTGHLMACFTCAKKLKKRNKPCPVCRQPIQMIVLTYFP
MDM2 N-terminus (1-150), Gal4-BD fusion: residues 1-150 of Q00987
MDM2 central acidic domain (151-350), Gal4-BD fusion: residues 151-350 of Q00987
MDM2 329-451 fragment, Gal4-BD fusion: residues 329-451 of Q00987
MDM2 329-433 fragment, Gal4-BD fusion: residues 329-433 of Q00987
MDM2 C-terminus (351-491), Gal4-BD fusion: residues 351-491 of Q00987
MDM2 351-451 fragment, Gal4-BD fusion: residues 351-451 of Q00987
MDM2 351-433 fragment, Gal4-BD fusion: residues 351-433 of Q00987
MDM2 RING domain (aa 434-491), Gal4-BD fusion: residues 434-491 of Q00987
UniProt P40337: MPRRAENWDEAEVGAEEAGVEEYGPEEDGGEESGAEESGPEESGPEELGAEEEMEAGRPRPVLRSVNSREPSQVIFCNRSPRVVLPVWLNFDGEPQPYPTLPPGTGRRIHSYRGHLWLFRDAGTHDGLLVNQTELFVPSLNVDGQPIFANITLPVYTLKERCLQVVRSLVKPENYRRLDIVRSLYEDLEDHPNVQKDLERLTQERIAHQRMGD
UniProt P23804: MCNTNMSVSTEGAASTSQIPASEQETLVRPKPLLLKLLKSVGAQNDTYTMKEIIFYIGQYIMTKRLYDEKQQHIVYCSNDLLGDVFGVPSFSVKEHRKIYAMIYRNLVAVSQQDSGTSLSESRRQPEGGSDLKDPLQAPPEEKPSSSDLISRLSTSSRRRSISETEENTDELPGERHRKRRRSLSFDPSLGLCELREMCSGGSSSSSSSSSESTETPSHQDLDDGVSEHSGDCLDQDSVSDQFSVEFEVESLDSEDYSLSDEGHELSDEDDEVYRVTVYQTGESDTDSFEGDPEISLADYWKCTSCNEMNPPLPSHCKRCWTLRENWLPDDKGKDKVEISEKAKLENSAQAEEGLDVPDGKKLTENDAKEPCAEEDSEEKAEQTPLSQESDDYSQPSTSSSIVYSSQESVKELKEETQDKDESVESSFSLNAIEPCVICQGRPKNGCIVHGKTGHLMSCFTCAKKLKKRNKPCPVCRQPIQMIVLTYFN

These are yes or no findings as the source states them, for the method shown. For some of these results: In cells and extracts the contact can be indirect. Some results given as binding are weak or reduced against the parent protein; the word gives no strength.

The target in one assay is Flag-tagged MDM2 (human) (UniProt Q00987). In words: co-IP; HEK293T cells transfected with Flag-MDM2 and HA-pVHL30; 0.2 mg post-nuclear supernatant, anti-FLAG antibody on protein A magnetic beads, 4 h at 4 °C; lysis buffer 20 mM HEPES-Na pH 7.4, 150 mM NaCl, 5 mM CHAPS; blot with anti-HA and anti-VHL.
Assay [1] addresses endogenous pVHL of HEK293T cells (human (endogenous in HEK293T)) (UniProt P40337). In words: co-IP; endogenous proteins of HEK293T cells; 500 µg post-nuclear supernatant with anti-MDM2 or anti-VHL antibody, mouse or rabbit IgG as control; reciprocal.
The target in assay [2] is green fluorescent protein (GFP)-tagged pVHL19 (human) (UniProt P40337). Put plainly: co-IP; MN-1 cells transfected with pVHL30-GFP, pVHL19-GFP or GFP; 400 µg post-nuclear supernatant, anti-GFP antibody; endogenous MDM2 detected by blot with anti-MDM2.
Assay [3] addresses green fluorescent protein (GFP)-tagged pVHL30 (human) (UniProt P40337). The description is as above.
Assay [4] has as its target endogenous MDM2 of HEK293T cells (human (endogenous in HEK293T)) (UniProt Q00987). Put plainly: co-IP; endogenous proteins of HEK293T cells; 500 µg post-nuclear supernatant with anti-MDM2 or anti-VHL antibody, mouse or rabbit IgG as control; reciprocal.
In assay [5] the target is human MDM2 fused with Gal4-binding domain (Gal4-BD), full length (human) (UniProt Q00987). In words: two-hybrid; Matchmaker Gold Two Hybrid System, yeast Y190; MDM2 or its fragments as Gal4-BD bait, pVHL or its fragments as Gal4-AD prey; growth on medium lacking histidine with 30 or 60 mM 3-AT, 3-8 days at 30 °C.
In assay [6] the target is MDM2 329-433 fragment, Gal4-BD fusion (human) (UniProt Q00987). The description is as above.
The target of assay [7] is MDM2 N-terminus (1-150), Gal4-BD fusion (human) (UniProt Q00987). Described as above.
The target of assay [8] is MDM2 351-451 fragment, Gal4-BD fusion (human) (UniProt Q00987). The description is as above.
Assay [9] addresses MDM2 RING domain (aa 434-491), Gal4-BD fusion (human) (UniProt Q00987). The description is as above.
In assay [10] the target is MDM2 central acidic domain (151-350), Gal4-BD fusion (human) (UniProt Q00987). The description is as above.
The target in assay [11] is MDM2 329-451 fragment, Gal4-BD fusion (human) (UniProt Q00987). Described as above.
The target in assay [12] is MDM2 C-terminus (351-491), Gal4-BD fusion (human) (UniProt Q00987). Described as above.
Assay [13] has as its target MDM2 351-433 fragment, Gal4-BD fusion (human) (UniProt Q00987). The assay is described as above.

Regarding “HA-tagged pVHL30 (from UniProt P40337-1 1-213)”, the binding entry with Flag-tagged MDM2 (human) is “binds”.

With “endogenous MDM2 of HEK293T cells (from UniProt Q00987 1-491)”, the binding entry in assay [1] is “binds”.

With “endogenous MDM2 of MN-1 cells (from UniProt P23804 1-489)”, the binding result in assay [2] is listed as “no binding”; in assay [3], “binds”.

On to “endogenous pVHL30 of HEK293T cells (from UniProt P40337 1-213)”, for which the binding result in [4] is reported as “binds”.

Regarding “human pVHL19 fused with Gal4-activation domain (Gal4-AD) (from UniProt P40337 54-213)”, in assay [5], the binding entry is reported as “no binding”.

For the substance “human pVHL30 fused with Gal4-activation domain (Gal4-AD) (from UniProt P40337 1-213)”, the binding result in assay [6] was “binds”; in assay [7], “no binding”; in [8], “binds”; in assay [9], “no binding”; in [5] it was “binds weakly”; in [10] it was “no binding”. Besides, the binding result in assay [11] is “binds”; in assay [12], “binds”; in [13] it was “no binding”.

As to “pVHL30-N-β fragment (1-157), Gal4-AD fusion (from UniProt P40337 1-157) (domain or fragment)”, the binding result in assay [6] is listed as “binds”.

Turning to “pVHL C-terminal alpha-domain (aa 158-213), Gal4-AD fusion (from UniProt P40337 158-213) (domain or fragment)”, the binding result in [6] and in [5] was “no binding” in each case.

Regarding “pVHL N-terminus (aa 1-53), Gal4-AD fusion (from UniProt P40337 1-53) (domain or fragment)”, the binding entry in assay [6] and in [5] was “no binding” throughout.

As for “pVHL beta-region (aa 54-157), Gal4-AD fusion (from UniProt P40337 54-157) (domain or fragment)”, the binding entry in assay [6] and in [5] was “no binding” in each case.
